Screen size: about 420,000 compounds; about 64,000 (15%) were called active. The shares of active, inactive and inconclusive entries below differ from those in the screen. Calls come from the whole dose curve; as a rule, active = well fitted inhibition curve with a large enough effect; inconclusive = small, poorly fitted or top-dose-only effect; inactive = flat fitted curve, though single readings scatter. No potency is given beside an inconclusive call; the fits are too rough.
test: qHTS for Inhibitors of human tyrosyl-DNA phosphodiesterase 1 (TDP1): qHTS in cells in absence of CPT; details: DT40 Tdp1-/- hTDP1 cells, no CPT, ATP luminescence, 48 h; activity change, negative = growth inhibition: at 46.2 µM (top of the series) unless noted; note: nearly all actives have a fitted effect of over 55% in size
Procedure, shortened: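 Luminescent ATP content (CellTiter-Glo) served as the growth readout. Knockout chicken DT40 cells expressing human TDP1 were exposed to compounds without camptothecin for a minimum 48 hr at 37 °C.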
% is set by controls: 0 for no effect and ±100 for the full control effect; potency is the fitted concentration of half-maximal effect; tags give direction and shape of the fitted curve.

SMILES	Potency	activity change, negative = growth inhibition
O=C(/C=C/c1ccccc1)Nc1cccc(C(=O)NCCc2ccccc2)c1	inconclusive [inhibitor, single point]	–
O=[N+]([O-])c1cc(CN2CCN(c3cccc(C(F)(F)F)c3)CC2)c2cccnc2c1O	active: 1.46 µM	–
CC(C)CC(=O)Nc1ccc2nn(-c3ccccc3)nc2c1	inconclusive [inhibitor, single point]	–
CC(=O)NC(c1cccc(F)c1)c1nc(-c2cccc(C(C)C)c2)cs1 (centres undefined)	active: 20.6 µM	–
Cc1c(NC(=O)c2ccc(Cl)cc2)cc(C(C)C)c(O)c1S(=O)(=O)c1ccccc1	inconclusive [inhibitor, single point]	–
O=S(=O)(c1cc(C(F)(F)F)ccc1Cl)N1CCN(c2ncnc3ccccc23)CC1	active: 2.06 µM	–
Cc1ccc(C)n1-c1ccc(C(=O)NCc2ccncc2)cc1	inconclusive [inhibitor, partial curve]	–
COc1cccc2c(C)c(C(=O)O)[nH]c12	–	inactive: -20.4%
COc1ccc(Cl)cc1NC(=O)CN(C)C(=O)c1ccc(N2CCCCC2)c([N+](=O)[O-])c1	active: 16.4 µM	–
COc1ccccc1CNC(=O)CCc1c(C)nn(-c2ccc(N3CCCC3)nn2)c1C	inconclusive [inhibitor, partial curve]	–
Cc1ccc2nc(C3CCCCC3)c(Cc3ccccc3)n2c1	active: 16.4 µM	–
O=C(NCC1CCN(Cc2ccccc2Cl)CC1)c1cc2ccc3cccnc3c2[nH]1	active: 16.4 µM	–
CC(=O)c1ccc(Nc2nc(C(N)Cc3ccc(N)cc3)cs2)cc1 (centres undefined)	inconclusive [inhibitor, partial curve]	–
CCOC(=O)c1ccc(NC(=O)COc2ccccc2CNCCO)cc1	inconclusive [inhibitor, single point]	–
CC1CCN(S(=O)(=O)c2cccc(C(=O)Oc3ccc([N+](=O)[O-])cc3)c2)CC1	–	inactive: 6.49%
COc1ccccc1CNC(=O)CCS(=O)(=O)c1ccc2c(c1)CC(C)N2C(=O)C1CC1 (centres undefined)	active: 23.1 µM	–
Cc1cc(=O)n(Cc2ccccc2Cl)c2c1c(C)nn2-c1ccccc1	inconclusive [inhibitor, single point]	–
CCCCOc1ccc(-c2n[nH]c(=S)n2Cc2ccccc2)cc1	active: 25.9 µM	–
S=C(NCc1ccccc1)Nc1ccc(Cl)cc1	inconclusive [inhibitor, single point]	–
CC1(C(=O)NCCC#N)CCN1C(=O)CC(c1ccccc1)c1ccccc1 (centres undefined)	inconclusive [inhibitor, single point]	–
Cc1ccc(CSc2nc3ccsc3c(=O)n2CCC(C)C)cc1	active: 23.1 µM	–
Cc1ccc(-c2nc(CSCC(=O)N3CCN(c4ccccn4)CC3)c(C)o2)cc1	active: 20.6 µM	–
Cc1cc(C)c2nc(-c3ccccn3)cc(C(=O)NCc3ccco3)c2c1	inconclusive [inhibitor, single point]	–
CCOC(=O)c1nn(-c2ccc(F)cc2)c(C)c1C(C)=O	–	inactive: 0.795%
C=CC[n+]1c(-c2ccc(Cl)cc2Cl)csc1Nc1c(C)n(C)n(-c2ccccc2)c1=O	active: 3.66 µM	–

SMILES	Potency	activity change, negative = growth inhibition
Cc1c(/C=N/NC(N)=O)c2ccccn2c1C(=O)c1ccncc1	–	inactive: -20.4%
COc1ccc(CC(=O)Nc2nnc3n2CCS3)cc1	–	inactive: -11.4%
Cc1cc(Br)cc(Br)c1OCC(=O)NNC(=O)Nc1ccccc1	–	inactive: -21%
CCC1(CC)C(=O)C2=C3C1[C@H](C(=O)OC)C=C(C(=O)OC)C[C@H]3[C@H]1C(=O)N(Cc3ccccc3)C(=O)[C@H]1[C@H]2C (some centres undefined)	active: 16.4 µM	–
CCCCC(=O)NC(=S)Nc1ccccc1C(=O)Nc1ccccc1	–	inactive: -3.63%
CCn1c2c(c(=O)n3ncc(C(=O)Nc4ccc(F)cc4Cl)c13)CN(Cc1ccc(OC)cc1)CC2	active: 23.1 µM	–
Cn1cc(C(=O)c2ccc(Cl)cc2Cl)cc1C(=O)N/N=C(\N)COc1ccc(F)cc1	active: 16.4 µM	–
COC(=O)c1cc(CNC(=O)c2sccc2-c2ccccc2)ccc1OC	inconclusive [inhibitor, single point]	–
CCOc1ccc(NC(=O)c2oc(=O)c3ccccc3c2-c2ccc(C)cc2)cc1	inconclusive [inhibitor, single point]	–
CCOc1ccccc1OCCN1CCC(Cc2ccccc2)CC1	inconclusive [inhibitor, single point]	–
CCN1CCN(C(=O)c2ccc3c(c2)N(Cc2ccc(F)cc2)C(=O)c2ccccc2S3(=O)=O)CC1	inconclusive [inhibitor, single point]	–
CCc1ccc(NC(=O)CSc2nnc(COc3ccc4c(c3)CCCC4)o2)cc1	inconclusive [inhibitor, single point]	–
COc1cccc(-c2nc(NC(C)(C)C)c3ccccc3n2)c1O	active: 20.6 µM	–
COc1ccc(S(=O)(=O)NCC(=O)Nc2ccc(F)cc2)cc1	inconclusive [inhibitor, single point]	–
NC1CCc2ccc([N+](=O)[O-])cc21 (centres undefined)	inconclusive [inhibitor, single point]	–
CCn1c(SCC(=O)Nc2ccc(NC(=O)c3ccco3)c(OC)c2)nc2ccccc2c1=O	–	inactive: -12.3%
COc1cccc(NC(=O)c2sc3nc(C)c(C(=O)Nc4ccc(C)cc4C)c(-c4cccs4)c3c2N)c1	inconclusive [inhibitor, partial curve]	–
Cc1ccc(C(=O)OCc2cn(-c3ccccc3)nn2)cc1	–	inactive: -19.5%
COc1cccc(CN(CC2CCCO2)C(=O)c2cc3ccccc3oc2=O)c1 (centres undefined)	–	inactive: -17.4%
CCNc1nc(SC(C)C(=O)Nc2ccccc2)nc(N2CCOCC2)n1 (centres undefined)	inconclusive [inhibitor, single point]	–
NC(COCc1ccccc1)c1csc(Nc2ccc(C(=O)c3ccccc3)cc2)n1 (centres undefined)	inconclusive [inhibitor, single point]	–
CCOc1ccc(-n2c(Cc3ccccc3)nnc2SCc2nc(-c3cccs3)no2)cc1	inconclusive [inhibitor, single point]	–
O=C(O)CCn1c(SCCOc2ccccc2F)nc2ccccc21	–	inactive: 12%
CCC(C)C(CO)NC(=O)/C=C/[C@H]1O[C@@H](n2cnc3c(NC(=O)c4ccccc4)ncnc32)[C@H](O)[C@@H]1O (some centres undefined)	–	inactive: 9.97%
COCCN(CCOC)C(=O)c1cc2sc3ccccc3c2s1	inconclusive [inhibitor, single point]	–

SMILES	Potency	activity change, negative = growth inhibition
CC1(C(=O)Nc2cccc3ncccc23)CCN1C(=O)CCc1ccccc1 (centres undefined)	inconclusive [inhibitor, full curve]	–
Cc1[nH]c2ccccc2c1C(=O)CSC(=S)N1CCN(C)CC1	inconclusive [inhibitor, partial curve]	–
Cc1cccc(NC(=S)N/N=C/c2ccc([N+](=O)[O-])s2)c1	active: 7.94 µM	–
COc1ccc(CN2CC(=O)N(c3cc(Cl)ccc3C)C2=S)cc1OC	inconclusive [inhibitor, single point]	–
COc1ccc(N(C(=O)Cn2nnc3ccccc32)C2(C(=O)NC3CCCC3)CCCCC2)cc1	inconclusive [inhibitor, single point]	–
COc1cc2c(C)nc3onc(-c4ccccc4)c3c2cc1OC	inconclusive [inhibitor, partial curve]	–
COc1ccc(OC)c(S(=O)(=O)Nc2cccc(-c3ccc4nncn4n3)c2)c1	inconclusive [inhibitor, partial curve]	–
COC(=O)c1ccc2nc(-c3ccco3)c(Cc3cccc(F)c3)n2c1	active: 18.4 µM	–
Cc1nc(N)nc(COc2ccccc2)n1	–	inactive: 5.42%
CSc1nc2ccc(Nc3nc(N4CCOCC4)nc(N4CCOCC4)n3)cc2s1	active: 16.4 µM	–
CC(C)C1C(=O)N(Cc2cn(CCC3OCCCO3)nn2)CCS(=O)(=O)N1Cc1ccc(-c2ccc(Cl)cc2)cc1 (centres undefined)	active: 23.1 µM	–
COc1cc(-c2nc(S(=O)(=O)c3ccc(Cl)cc3)c(N3CCOCC3)o2)cc(OC)c1OC	active: 16.4 µM	–
C/C(=N\NC(=S)Nc1cccc(C)c1)c1cc2ccccc2o1	inconclusive [inhibitor, single point]	–
O=C1c2ccccc2C(Cc2ccncc2)(Cc2ccncc2)c2ccccc21	–	inconclusive: -35.4% [inhibitor]
Cc1cc(C)cc(NC(=O)C2CCN(S(=O)(=O)c3c(C)noc3/C=C/c3ccco3)CC2)c1	active: 14.6 µM	–
CC(C)C[C@]1(c2ccccc2)ON(c2ccccc2C(F)(F)F)C1=O	–	inactive: -14%
Cc1ccc(N2CC(C(=O)N3CCC4(CC3)CC(=O)c3ccccc3O4)CC2=O)cc1 (centres undefined)	active: 23.1 µM	–
CCCCN(CCCC)C1=C(C(=O)c2ccccc2)N(CC)S(=O)(=O)c2ccccc21	active: 25.9 µM	–
CC(=O)c1cccc(CN2CCC(n3nccc3NC(=O)CCOc3ccccc3)CC2)c1	–	inactive: -17.8%
Cc1ccc2scc(N3CCN(c4cccc(C(F)(F)F)c4)CC3)c(=O)c2c1	inconclusive [inhibitor, single point]	–
Cc1nn(C)cc1S(=O)(=O)Nc1ncccn1	–	inactive: 1.69%
CCN(Cc1ccncc1)C(=S)Nc1ccccc1C	inconclusive [inhibitor, single point]	–
COc1ccc(/C=N/N2C(C)CCCC2C)cc1OC (centres undefined)	–	inactive: -16.6%
COc1ccc(NC(=O)N2CCN(C(=O)c3ccco3)CC2)c(OC)c1	–	inactive: 12.1%

Reference: PubChem BioAssay AID686978 (National Center for Advancing Translational Sciences (NCATS), 2013)
